± gives the standard deviation. In all, about 6,600 sequences were measured (“pre-steady-state target cleavage rate”: median about 0.07, highest 2% from about 0.72 on). Only a part is listed here, and it is no random draw.
The sequences below were run on MIWI (PIWIL1) piRISC loaded with Kctd7 piRNA (30 nt) (assay: pre-steady-state target cleavage rate (min^-1); MIWI and MILI are mouse PIWI proteins and EfPiwi is from a freshwater sponge; tags in brackets are library labels; higher = faster piRNA-guided slicing of the target). Settings: guide: Kctd7 piRNA 5'p-UGUUAAUCUCUCAGAGAAGGUGACAGUGAU; auxiliary factor: 500 nM mouse GTSF1.
Summary of the method: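 At 33 °C in HEPES–potassium acetate buffer, a transcribed, DNA-blocked target RNA library […] was exposed for 0–8 or 0–960 min to 1 nM active affinity-purified piRISC carrying a single synthetic guide, with or without 500 nM GTSF1 partner protein. Uncleaved targets were sequenced and normalised to depth and to weakly complementary targets. With three trials pooled and k3 capped at 0.0001 min^-1, a burst-and-steady-state fit produced the pre-steady-state cleavage rate.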
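Further: 1 nM active piRISC with 0.1 nM target library at 33 °C single turnover.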

Sequence	pre-steady-state target cleavage rate
UAGUCUGUCACCUUCUCUGAGAGAUUUAGA	0.0734 ± 0.028
UAGUCUGUCACCUUCUCUGAGAGAUAACA	0.116 ± 0.02
UAGUGACACCCCUUCUCUGAGAGAUUAACA	0.426 ± 0.042
UAGUGUGUCACCUUCUCUGAGAGAAAAAGA	0.0283 ± 0.011
AUCACUGUCACCUUGUCUGAGUGAUUAACA	0.048 ± 0.0066
UAGUGACACACCUUCUGUGAGAGAAUAACA	0.0506 ± 0.0083
UACACUGUCACCUUCUCAGUGAGAUUAACA	0.0229 ± 0.006
UACAGUGUCUCCUUCUCUGAGAGAUUAACA	0.499 ± 0.035
UAGUGAGUCACCUUCUCUGAGAGAUUAAUCA	0.408 ± 0.044
UAGUCUGACACCUUCUCUGAGAGAUUAUGA	0.033 ± 0.0063
UAGUGACACUGCUUCUCUGAGAGAUAUUGA	< 0.0001
UAGACUGUCACGUACUCUGAGAGAUUAACA	0.293 ± 0.032
UAGUGUGUCACCUUCUCUGAGAGAAUUUGA	0.124 ± 0.033
UACACAGUCACCUUCUGUGAGAGAUUAACA	0.376 ± 0.024
AUCACUGUCACCUACUCUGUGAGAUUAACA	0.219 ± 0.014
UUCACUGUCACCUUCUCUGUCAGAUAUUGA	0.0146 ± 0.0073
UAGUGAGUCACCUUCACUGAGUGAUUAACA	0.0231 ± 0.0038
AUGACUGUCACCUUCUCUGAGAGAUUUUGA	0.0138 ± 0.0047
UUCACAGUCACCUUCUCUCAGAGAUUAACA	0.126 ± 0.012
UACACUGUCACCUUCUCUGUGAGAUAUUGA	0.00592 ± 0.004
UAGACUGUGACCUUCUCAGAGAGAUUAACA	0.193 ± 0.012
UAGUGUGUCUGGUUCUCUGAGAGAUUAACA	0.0198 ± 0.003
UACACUGUCACCUACUCUGAGAGUUUAACA	0.235 ± 0.039
UUCAGUGUCACCUUCUGUGAGAGAUUAACA	0.495 ± 0.025
UAGACUGUCACCUUGUCUGAGACAUUAACA	0.195 ± 0.031

Sequence	pre-steady-state target cleavage rate
UAGUCUGUCACCUUGUCUGUGAGAUUAACA	0.111 ± 0.011
UAGUGUGGUCACCUUCUCUGAGAGAUUAACA	0.636 ± 0.041
UACACUGUCACCUUCUCACUGAGAUUAACA	0.00822 ± 0.0052
UAGUGACAGACCUUCUCAGAGAGAUUUACA	0.00727 ± 0.004
UUCACUGUCACCUUCGCUGAGAGAUUAACA	0.574 ± 0.05
UACACUGUCACCAAGUCUGAGAGAUUAUGA	0.00543 ± 0.0052
UAGUGAGUCACCUACUCUGAGAGAAUAACA	0.227 ± 0.045
UAGUGACAGAACUUCUCUGAGAGAUUAACA	0.0127 ± 0.0037
UACACUGUCACCUUCUCUGAGAGAAUUUGA	0.247 ± 0.067
UAGACUGUCACCUUCUCUGACACAUUAACA	0.00898 ± 0.0018
AUCAGUGUCACCUUCUCUGAGAGAAUAACA	0.342 ± 0.06
UAGUCUGUCACCUUCUCGGAGAGAUUAACA	0.254 ± 0.018
UAGUCUCUCUCCUUCUCUGAGAGAUUAACA	0.0631 ± 0.0077
UAGUGACUCGCCUUCUCUGAGAGAUUAACA	0.262 ± 0.033
UAGUGACUCAGCUUCUCUGAGUGAUUAACA	0.0122 ± 0.0042
UACACUGUCACCAUCUCUGAGAGAUUUACA	0.265 ± 0.027
UAGUGACUCACCAUCUCUGAGAGAAUAACA	0.0242 ± 0.0062
UAGUCUGUCAGGUUCUCUGAGAGAUUAAGA	0.0112 ± 0.0039
UAGUGACACAGCUUCUCUGACAGAUUAACA	0.0208 ± 0.0042
AUCACUGUCUCCUUCUCUGACAGAUUAACA	0.311 ± 0.023
UAGUGUGUCACCUAUCUCUGAGAGAUUAACA	0.329 ± 0.033
UACACUGUCACCUUCUCUGAGACUAUAAGA	0.00356 ± 0.0034
UAGUGACUCACCUUCUGUGAGAGAUUAUGA	0.013 ± 0.0041
UACACUGUCACCUUCUGAGAGAGAUUUUGA	0.0616 ± 0.019
UAGUGAGUCACCUUCUCUGAGAGAUUAAGA	0.235 ± 0.03

Sequence	pre-steady-state target cleavage rate
UAGUCUGUCACCUUCUCUGACAGAUAAACA	0.0101 ± 0.0041
UACACUGACAGCUUCUCUGAGAGAUUAACA	0.573 ± 0.041
AUCACUGUCACCUUGUCUGAGAGAUUAUCA	0.523 ± 0.08
UAGACUGUCACCUUCUCAGAGAGAUUUACA	0.202 ± 0.027
AUCACUGUCAGCUUCUCUGAGAGAUUAAGA	0.107 ± 0.016
UUCACUGUCACCUUCUCUGAGAGAUAAACA	0.337 ± 0.039
UAGUCUGUCACCUUCUCUGAGAAUUAACA	0.0266 ± 0.014
UAGUGAGUCACCUUCUCAGAGAGAUUAUCA	0.146 ± 0.028
UAGUGAGUCACCUUCACUGAGAGUUUAACA	0.0872 ± 0.022
UUCACGGUCACCUUCUCUGAGAGAUUAACA	0.687 ± 0.032
UACACUGUCACGUUGUCUGAGAGAUUAACA	0.35 ± 0.026
UAGUGAGUCACCUUCUCUGAGAGAUUUUGA	0.21 ± 0.053
AUCACUGUCACCUUGUCUGAGAGAAUAACA	0.377 ± 0.098
UAGUGACAGACCAUCUCUGUGAGAUUAACA	0.0035 ± 0.0021
UAGUGUGUCACCUUCUCUCAGAGUUUAACA	0.0491 ± 0.0094
UAGUGAGACACCAUCUCUGAGAGAUUAACA	0.337 ± 0.028
UACACUGUCACACUUCUCUGAGAGAUUAACA	0.544 ± 0.023
UUGACUGUCACCUUCUCUGAGAGAUAAACA	0.359 ± 0.036
UACACUGUCACCUUCUCUGAGAGAUAAUCA	0.0879 ± 0.02
UAGUGACACACCUACUCAGAGAGAUUAACA	0.0388 ± 0.011
AUCACUGUCACCUUCACUGAGAGAUUAUGA	0.13 ± 0.029
UUCACAGUCACCUUCUCUGAGAGAUUAUCA	0.242 ± 0.039
AUCACUGACACCUUCUCAGAGAGAUUAACA	0.322 ± 0.026
AUCACACACACCUUCUCUGAGAGAUUAUGA	0.0722 ± 0.021
AUCACUGUCACCUACUCUGAGAGAUAAACA	0.318 ± 0.038

Sequence	pre-steady-state target cleavage rate
UAGUCUGUCACCUUCUCUGAGACUAUAACA	0.0038 ± 0.0027
UAGUGAGUCACCUUCUCUGAGACAUUUUGA	0.014 ± 0.0046
AUCAGUGUCACCUUCUCUGAGACAUUAACA	0.193 ± 0.014
UAGUGACUCACGUACUCUGAGAGAUUAACA	0.0037 ± 0.003
UAGUGAGUCACCUUCGUCUGAGAGAUUAACA	0.0209 ± 0.0054
UUCACAGUCACCUUCUCUGAGAGAUAAACA	0.316 ± 0.034
UAGUGUGUCACCUUGUGUGAGAGAUUAACA	0.181 ± 0.012
UACACUGUGACCUUCACUGAGAGAUUAACA	0.301 ± 0.029
UAGUCUGACACCUUCUCUGAGACAUUAACA	0.041 ± 0.006
UUCACUGACACCUUGUCUGAGAGAUUAACA	0.18 ± 0.021
UAGUGAGUCACCUUCUCUCAGAGAUUAAGA	0.0139 ± 0.0058
UAGUGACACACCUUCUCUGAGACUUUAACA	0.00354 ± 0.0027
UACACUGUCACCUUCUCUGACAGAUUAUGA	0.0184 ± 0.0069
UAGUGUCACACCUUCUCUGAGAGAUUAACA	0.529 ± 0.033
UAGUGACUCACCUUCUCUGAGUGAUUAUCA	0.00976 ± 0.0032
UAGUGACAGUCCUUCUCUGAGAGAUUAAUA	0.0658 ± 0.0091
UAGAGAGUCACCUUCUCUGAGAGAUUAACA	0.797 ± 0.035
UUCACUGUCUGGUUCUCUGAGAGAUUAACA	0.179 ± 0.018
UAGUCUGUUCACCUUCUCUGAGAGAUUAACA	0.651 ± 0.04
UUCACUGAGUCCUUCUCUGAGAGAUUUUGA	0.025 ± 0.0082
UAGUGACACACCUUCUCUGAGAGAUUCAACA	0.417 ± 0.087
UAGUGACACACCUUCUCUGACAGAUUAUCA	0.0119 ± 0.0057
UAGUGAGUCACCUUCUCUGAGAGAAUUUGA	0.106 ± 0.033
UAGUGACAGAGCUUCACUGAGAGAUUAACA	0.00847 ± 0.0032
UACACUCUCACCUUCUCUGAGAGAUUAAGA	0.0601 ± 0.016

Sequence	pre-steady-state target cleavage rate
UACACUGUCACCUUCUGAGAGAGAUAUUGA	0.00634 ± 0.006
UAGUGACUCACCUUCUCUGAGAGAGUUAACA	0.257 ± 0.034
UAGUGUGUCACCUUCUGUGAGAGAUUAACA	0.567 ± 0.026
UAGACUGUGUCCUUCUCUGAGAGAUUAAGA	0.14 ± 0.026
UUCACUGUCACCUUCUCUGACAGAUUAAGA	0.0101 ± 0.0052
UAGUGACACACGUUCUCUGAGAGAUUAAGA	0.0472 ± 0.0077
UAGUGUGUCAGCCUUCUCUGAGAGAUUAACA	0.154 ± 0.016
AUCAGCUGUCACCUUCUCUGAGAGAUUAACA	0.792 ± 0.043
UUCACACACACCUUCUCUGAGAGAUAUUGA	0.0849 ± 0.028
UAGUGACAGACCUUAUCUGAGAGAUUAACA	0.0217 ± 0.0049
AUGACUCUCACCUUCUCUGAGAGAUUAACA	0.274 ± 0.023
UAGACUGUUCACCUUCUCUGAGAGAUUAACA	0.771 ± 0.043
UAGACUGUCACCAUCUCUGAGAGAUUAAGA	0.112 ± 0.018
UAGUGACUCACCUACUCUGAGAGUUUAACA	0.0954 ± 0.014
AUGACUGUCACCUUCUCUGAGAGAUUAUGA	0.0921 ± 0.015
UACACUGUCACCUUCACUGAGAGAUUUUGA	0.302 ± 0.099
UAGUGUGUCACCUUCUCUGAGACUUUAUGA	0.00826 ± 0.0044
UAGUCUGUCACCUUCUCUGAGAGAUCAACA	0.243 ± 0.03
UAGUGAGUCACCUACUCAGAGAGAUUAACA	0.121 ± 0.0098
UAGUCUGUGACCUUCUCUGAGAGAUUUUGA	0.00421 ± 0.0027
UAGUGUGUGACCUUCUCUGAGAGAUUAUGA	0.0228 ± 0.0075
UAGUGACAGUGCUUCUCUGAGAGAUUAAA	0.00418 ± 0.0021
UAGUGAGUCACCUUGACUGAGAGAUUAAGA	0.00365 ± 0.0035
UAGUCUCUCACCUUGUCUGAGAGAUUAACA	0.0135 ± 0.0038
UACACUGUCACCUUCUCUAGAGAUUAACA	0.141 ± 0.018

Sequence	pre-steady-state target cleavage rate
UAGACUGUCACCUUCUCUGAGAGAUUAAA	0.141 ± 0.018
UAGUGUGACACCUUCUCUGAGUGAUUAACA	0.0256 ± 0.0052
UAGACAGACACCUUCUCUGAGAGAUUAACA	0.572 ± 0.035
UAGUGAGUCACCUUGUCUGACAGAUUAACA	0.165 ± 0.025
UAGUGACUCACCAUCUGUGAGAGAUUAACA	0.0661 ± 0.016
UAGUCUGUCACCUUCUCUGUCAGAUUAACA	0.0105 ± 0.0028
UAGUGAGUCACCUUGUCUGAGACAUUAACA	0.125 ± 0.031
UUCACUGUCACCUUCUGUGAGAGUUUAACA	0.212 ± 0.035
UUCACUGUCACCGUUCUCUGAGAGAUUAACA	0.729 ± 0.032
UUCACUGUCACCUUCUCCGAGAGAUUAACA	0.323 ± 0.045
UUCACUGUCAGCAUCUCUGAGAGAUUAACA	0.532 ± 0.042
UAGUGACAGACCUUCACUGAGAGAUUUACA	0.0132 ± 0.0048
AUCACUGUCACCUACUCUGAGAGAUUAACA	0.699 ± 0.047
UAGUGACAGUCCUUCACUGAGAGAUUAUCA	0.0128 ± 0.0044
UAGACUGUCACCUUGUCUGAGAGUUUAACA	0.27 ± 0.049
AUCACUGUCACCUUCUCUGAGACUUUAUGA	0.00528 ± 0.0036
UAGUCUGUGACCUUCUCUCAGAGAUUAACA	0.0779 ± 0.0048
UAGACUGACACCUUCUCUGUGAGAUUAACA	0.207 ± 0.013
UAGUGUGUCACCUUCUCUGAAGAGAUUAACA	0.00762 ± 0.0051
UAGACUGUCACGUUCUCUGAGAGAUUAUCA	0.174 ± 0.032

— the supplement of paper PMC10338343
